# Results from the supplement of paper PMC10126150.
# Sequences with one replicate were seen in a single cluster, so their values are uncertain.
# Test system: ATP
# Experiment: switch fluorescence ratio, 500 uM ATP over buffer (Cy3 cluster intensity, sum of 5 cycles each) (fold (ratio)); higher = stronger signal-on switching upon ATP binding; sequences stand for … in TCGTCGGCAGCGTCAGATGTGTATAAGAGACAGTTTTTTTTTTTTTTTTTTTTTTTTT…TC
# Details: aptamer strand: ATP DNA aptamer (quencher-CACCTGGGGGAGTATTGCGGAGGAAGG + anchor), 100 nM annealed; ATP concentration: 500 uM; one replicate
# Outline: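 Imaging in selection buffer was followed by imaging after 15 min with 500 uM ATP at 22 °C, for Cy3-labelled switching-strand clusters annealed to 100 nM quencher-labelled ATP aptamer on a modified Illumina MiSeq flow-cell. Five of these buffer/ATP cycles ran, separated by NaOH stripping and re-annealing. The fluorescence ratio per cluster is summed target-cycle over summed buffer-cycle Cy3 intensity, averaged per switch-domain sequence; clusters outside 100-1000 RFU were removed.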
# 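Further: ATP exposure 15 min at 22 °C before imaging.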
row,Sequence,switch fluorescence ratio
1,CGGCTCTTAT,0.967
2,ATGTCGGCTA,0.967
3,GCCCTGTACG,1
4,GCCAGGCGGG,0.997
5,ACGGAACTTC,1.29
6,AATTGCGGTC,0.984
7,CCATGCATAC,3.09
8,GCCACTGATA,1.04
9,CACGAGTGAA,0.962
10,ACAGCTGGA,1.01
11,TTTAGAACAG,1.01
12,CTCACCGAGT,1
13,CCACGGGGGC,1.04
14,CTATTGCTTT,1.03
15,AAAATCCGTG,1.03
16,ACGGGGAAGT,1.02
17,TCCAGAGGTC,1.02
18,CTCGGGTGCA,1.06
19,AGATGTGTAT,0.97
20,CATGTTAGTG,0.952
21,AGGGTCAGTC,1.01
22,ATATGGTGAG,0.953
23,CTTCAGTTTC,0.997
24,AGCGGGTCCT,0.998
25,ACAGCGATAA,2.13
26,ATCAAAAGA,1.02

row,Sequence,switch fluorescence ratio
1,ACACATCTAT,1.04
2,GTGAGGCGCG,1.04
3,TTCGCACACT,1.15
4,AAGCCAGGAT,1
5,CTTACAGGGC,1
6,ATAACTTGTG,0.966
7,CGTTTTGTTT,0.985
8,GACAGCCGAA,1.02
9,TCGGGGGACA,0.996
10,ATTCATTAGA,0.978
11,TTGTCAGCCA,1.05
12,AAGCATGAGT,1.01
13,TCGGTATAAT,1.22
14,CTGTTAAGTC,1.03
15,AGAGGCTTGA,1.02
16,GGCTGAGCCC,0.953
17,TAAGCGAGGC,1.09
18,GGCGGAGGTC,1.01
19,GTTCGATTGG,1.03
20,ATCTGTTCAT,0.982
21,ATACCTAGT,1.03
22,TTTAAAACCC,0.982
23,TATAAACCCA,0.988
24,TATCGCCTTA,0.987
25,GCTCTTGCGG,1.05
26,AATTTGGGCT,0.983

row,Sequence,switch fluorescence ratio
1,GCTATGAGCG,1.03
2,CCATAGCGGG,1.17
3,ACGGTGGCCG,1.16
4,TAGCGTCTGC,1.11
5,GTTAAAAAAG,0.986
6,GTGATACAC,1.06
7,TACCATTATC,1.01
8,AAATTCATCA,1
9,GAGTAAATTT,0.964
10,ATATCTTACC,1.03
11,GATACTATAA,1.02
12,CAGGTTAGGA,1.03
13,TCTCTGAGTG,0.983
14,ATCTGCGCAG,1.05
15,CAGACCCTTC,1.07
16,TGGTCATCGG,0.929
17,TGGAAGTAG,0.979
18,ATGTCACCGG,0.978
19,CTAAGATTTT,0.982
20,CAGGTTAAGA,0.966
21,CCCCTCGAGT,1
22,TAGACGAATA,1.35
23,TTAATGAGGT,0.999
24,TGAAGGTTAT,0.973
25,AACACCATGT,1
26,TGGCTTAATT,1.03

row,Sequence,switch fluorescence ratio
1,GGGGTCGT,1.01
2,GGTAGTAGTT,0.989
3,AACTGGGAGG,1.02
4,GAACCGCTCG,1.12
5,AGCTAGTAAG,0.974
6,AAAAGAGAAA,0.946
7,AATCATGTGT,1.01
8,CGTGCTCATG,0.998
9,CAACATTTTT,0.988
10,GGGCTAAAAT,1.01
11,TTAGTGTGAT,1.02
12,GATTGGACTG,1.03
13,GGCCGTCTGC,0.984
14,TTCCGGTGGT,0.946
15,TGTGCGTTA,1.02
16,AGACATACGG,1.06
17,CTTCAACGC,1.51
18,TTTTGTCCGT,0.99
19,ACAGCGACCC,1.23
20,TCATCAGCTT,1.33
21,CGGGAAGTCC,1.01
22,GGGGAACCCT,0.981
23,ATGGGATG,1
24,GGATCAAGGA,1.02
25,AAATTGCGGT,0.965
26,TTGATCACGC,1.01

row,Sequence,switch fluorescence ratio
1,TCCTCCTCTA,6.46
2,CATTGAACTT,1.01
3,TAATGTGTAG,1.02
4,AGTGATAGTT,0.99
5,TGGGAGAGAC,1.02
6,CTCCTCAGAC,2.97
7,CAGTACGGGA,1.05
8,TAATACACAA,1.03
9,AAACTGATTT,1.04
10,AAGACAACTT,1.05
11,TGTGTGCAGC,1.01
12,GGTAGGGGAT,1.06
13,AGTAGCTTGC,1.03
14,CCTAGGATGC,1.15
15,GATGATCCTC,0.997
16,CTCCCGAGAA,1.13
17,AACGTGAGA,1.02
18,ATCTACATGC,1.04
19,TTCTTAGTGC,1.08
20,TCACGGCGGA,0.984
21,GGTTCGTATC,0.977
22,GGAAAAAGA,0.979
23,GGTCCAGCAG,1.02
24,AATTCTTATC,0.961
25,AAGTCCAGGC,1.18
26,TTCTTTCATC,0.998

row,Sequence,switch fluorescence ratio
1,CGGGCGTAAG,1.03
2,TATAGTGCA,1.03
3,CGACATCTTT,1.01
4,CCTAGATTAA,1.02
5,ACGAGACGTT,1.09
6,ACTGTTCCGC,2.01
7,TTCGCCTAGG,1.13
8,TTAGTATTTG,1.02
9,GTCGGAGGTG,0.948
10,GCCCGTCATG,0.999
11,TGATACCGAT,1.05
12,GGGTGATATA,1.04
13,ATCCCTGACC,1.11
14,CCAGAGCCCA,1.35
15,GGCCACATGA,1.05
16,CACGACGGCC,1.08
17,TGGTAAAGA,1.01
18,AAACCAAAGT,0.997
19,TGTCTGGCGG,1.19
20,GTTGTCCGGA,1.04
21,CGGCAATCAA,2.19
22,TTCCTTGGGG,0.976
23,GCGAGACATA,1.02
